The source of these data is ChEMBL document CHEMBL4888484, “Replenishing the malaria drug discovery pipeline: Screening and hit evaluation of the MMV Hit Generation Library 1 (HGL1) against asexual blood stage Plasmodium falciparum ,using a nano luciferase reporter read-out” (2022).

In all, about 150,000 compounds went through this assay and about 540 (0.36%) showed an effect of 50% or more. This is one part of the list.

The % Inhibition is the change of the read-out against control, counted positive when it falls.

The subject of this experiment is Plasmodium falciparum. The experiment in a line: Primary screen in NF54 nanoGlo assay, in single point, at 2uM, 72h; a lower Z score goes with more inhibition. The format is functional, Erythrocyte. Conditions: timepoint 72 hour.
In the case of `Cc1cnn(CC2CCN(C(=O)c3ccc4c(c3)ncn4CCO)CC2)c1`, the “% Inhibition” value amounted to 2% and the Z score is -0.31.

As for `COCCN(Cc1ccc(C)o1)[C@H]1CCOC1`, the “% Inhibition” value is recorded as -4% and the Z score is recorded as 0.66.

For `O=C(NC1CCN(Cc2ccc(F)c(F)c2)CC1)N[C@H]1CCOc2ccccc21`, the “% Inhibition” value worked out at 10% and the Z score was -1.32.

`O=C(CC1CCCCC1)NCC1CCN(c2cc(-c3ccccn3)n[nH]2)CC1`: the “% Inhibition” value is listed as 2% and the Z score is given as -0.16.

Regarding `CC(=O)N1N=C2C(=Cc3ccc(Cl)cc3)CC(C)CC2C1c1ccc(Cl)cc1` (configuration not stated), the “% Inhibition” value is recorded as -8% and the Z score was found to be 1.49.

In the case of `C#CCCC1(CCC(=O)N2Cc3ccccc3OC[C@@H]2C)N=N1`, the “% Inhibition” value was -13% and the Z score stood at 1.65.

Consider `COC(=O)C[C@@H](c1cn[nH]c1-c1ccccc1)c1c(O)n[nH]c1C`, for which the “% Inhibition” value is listed as 4% and the Z score is recorded as -0.53.

For the molecule `O=C(CCn1cnc2c(-c3ccccc3)noc2c1=O)NC1CC1`, the “% Inhibition” value is reported as -3% and the Z score was 0.46.

Turning to `CCC(CC)C(=O)N1CC(=O)N2CC[C@@H](CC(=O)N3CCN(C)CC3)[C@@H](/C=C\COc3ccccc3C1)C2`, the “% Inhibition” value was determined as 11% and the Z score is on record as -1.3.

With `CN(C)C(=O)c1cccc(N2CC[C@](C)(O)[C@@H](O)C2)n1`, the “% Inhibition” value is given as -11% and the Z score is recorded as 2.

With `O=C(COc1ccc(Cl)c(Cl)c1)N1CC[C@@]2(CCCNC2=O)C1`, the “% Inhibition” value worked out at 12% and the Z score is listed as -1.62.

Consider `CC(C)Nc1ncc(CN2CC[C@H](c3ccnc(-c4ccc5c(c4)OCO5)c3)C2)cn1`, for which the “% Inhibition” value is reported as -4% and the Z score stood at 0.54.

For the molecule `CC(C)c1nc(N2CCCC2=O)sc1C(=O)Nc1ccccc1`, the “% Inhibition” value is -10% and the Z score stood at 0.95.

Take `COC(C(=O)Nc1nccc2cc(Br)ccc12)C1CCOC1` (configuration not stated): the “% Inhibition” value was 3% and the Z score was -0.35.

Regarding `CCCN(Cc1cc(NC(=O)NC(C)(C)C)ccc1N(C)C)C(=O)C(C)C`, the “% Inhibition” value was -1% and the Z score turned out to be 0.09.

For `Cc1ncc(CN2CCC(NC(=O)c3cc[nH]n3)C(C)C2)s1` (configuration not stated), the “% Inhibition” value is 0% and the Z score is -0.04.

`COc1ccc(CCNC(=O)C2=C(C)NC(=O)N[C@H]2c2cccnc2)cc1`: the “% Inhibition” value is recorded as -12% and the Z score is 2.42.

Take `COc1ccc(N2CCN(C(=O)[C@H]3CCC[C@H]3NC(=O)c3cnc(C)cn3)CC2)cc1`: the “% Inhibition” value is on record as -15% and the Z score is recorded as 2.37.

`O=C(NCc1cccs1)N1CCC[C@H]1c1ccncc1`: the “% Inhibition” value is recorded as -2% and the Z score is given as 0.32.

In the case of `NC(=O)c1ccc2nc(CN3CC[C@@](O)(c4ccccc4)[C@H]4CCCC[C@H]43)cc(O)c2c1`, the “% Inhibition” value is given as 1% and the Z score was -0.09.

For the molecule `CCOC(C)(C)C(=O)NC[C@H]1CCN(C2CCCCC2)C1`, the “% Inhibition” value was -7% and the Z score worked out at 1.11.

For `CC(C)c1cc(=O)[nH]c(-n2nc(C3CC3)cc2NC(=O)c2ccc(F)cc2)n1`, the “% Inhibition” value amounted to 90% and the Z score was -16.95.

Turning to `Cc1ccnc([C@@H](Nc2ncnc(C)c2C)C2CC2)c1`, the “% Inhibition” value is -1% and the Z score is given as 0.15.

In the case of `Cc1ccc(C)c(-c2cncc(C(=O)NC3CCCCC3)c2)c1`, the “% Inhibition” value is -12% and the Z score was 1.38.

In the case of `COc1cc(C(F)(F)F)ncc1NC(=O)NC1CCN(CC2CC2)CC1`, the “% Inhibition” value is reported as -1% and the Z score was found to be 0.08.

In the case of `Cc1ccccc1[C@@H](NS(=O)(=O)Cc1ccon1)C(C)(C)C`, the “% Inhibition” value is on record as -13% and the Z score is 1.27.

On to `N#C[C@@H]1C(=O)N=C(N2CCN(c3ccccc3)CC2)NC12CCN(Cc1ccccc1)CC2`, for which the “% Inhibition” value was -6% and the Z score is 0.92.

Consider `Cc1nn(C)c(Cl)c1-c1c(-c2ccccc2)ncn1C[C@H]1CCCO1`, for which the “% Inhibition” value is recorded as 9% and the Z score was -1.29.

In the case of `C#CCNC(=O)CNC(=O)c1ccccc1NC(=O)C(C)(C)C`, the “% Inhibition” value is reported as -6% and the Z score stood at 0.8.

With `Cc1cc(=O)c(C(=O)NC[C@H](C)c2c(C)noc2C)c[nH]1`, the “% Inhibition” value is -4% and the Z score was found to be 0.58.

For the molecule `Cc1cc(C(=O)N2CCOC[C@@H]2CC(=O)c2ccco2)ns1`, the “% Inhibition” value is reported as 3% and the Z score is on record as -0.4.

For `CC(C)(C)C1CCCC1Nc1nc(=O)c2cn[nH]c2[nH]1` (configuration not stated), the “% Inhibition” value is -3% and the Z score came out at 0.57.

For the molecule `Cc1ccc2nonc2c1S(=O)(=O)NCc1cnn(C)c1`, the “% Inhibition” value is on record as -10% and the Z score worked out at 1.49.

Regarding `CC(=O)NC1(c2noc(-c3cc(F)cc4ccoc34)n2)CCCCC1`, the “% Inhibition” value is -9% and the Z score was determined as 1.17.

For `CCCc1nnc(N2C[C@@H](CN3C[C@@H](C)O[C@@H](C)C3)[C@@H](CO)C2)s1`, the “% Inhibition” value is listed as -10% and the Z score came to 1.93.

With `Cc1cc(CN2CCCCC2C2CCCCC2O)nc(-c2ccc(Cl)cc2)n1` (configuration not stated), the “% Inhibition” value is -12% and the Z score was found to be 1.84.

`C[C@H]1CN(S(=O)(=O)c2ccccc2)CN1C(=O)N1CCOCC1`: the “% Inhibition” value is given as 9% and the Z score is given as -1.16.

As for `O=C(NCc1ccco1)c1ccncc1F`, the “% Inhibition” value is -7% and the Z score is recorded as 1.32.

For the molecule `O=C(O)[C@H]1CCCN(C(=O)Nc2ccc(-n3ncc4ccccc43)cc2)C1`, the “% Inhibition” value is recorded as -5% and the Z score is 0.61.

`Cc1ccc(CCCC(=O)NC[C@H](O)CN2CCOCC2)cc1`: the “% Inhibition” value was -13% and the Z score amounted to 1.3.

Consider `COCC(=O)N1CC[C@H](c2nnc(-c3ccc(C)cc3)o2)C1`, for which the “% Inhibition” value was 0% and the Z score is recorded as 0.02.
